# From PubChem BioAssay (Tox21)
# Where “and” joins values, the source holds several entries; their conditions need not be identical. Equal values may be shown once. Inconclusive results, whose numbers are uncertain, are shown with a selection of clear calls. For part of these data: Potencies beside an inconclusive call are fits to weak or partial responses and may not hold up. Calls of active or inactive are those of the source. Unless noted, the call rests on the fitted dose curve; in most records, active means well fitted curve in the direction sought with a large enough effect in the repeat runs; inconclusive means weak or mixed curves; inactive means no such curve, though single readings can be large; an effect the other way counts as inactive or inconclusive.
# Columns and labels:
# [1] = qHTS assay to identify small molecule that activate the aryl hydrocarbon receptor (AhR) signaling pathway - cell viability counter screen (AID 743086); further: nearly all actives have a fitted effect of over 45% in size
# Outline: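 HepG2-AhR-luc (HG2L7.5c1) cells, 4000/well, treated 24 h at 37 C with compound; viability measured as CellTiter-Fluor fluorescence after 30 min in the same wells as the luciferase read.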
# [2] = biological target: Peroxisome proliferator-activated receptor gamma (Homo sapiens) (UniProt P37231); assay: qHTS assay to identify small molecule agonists of the peroxisome proliferator-activated receptor gamma (PPARg) signaling pathway (AID 743094; active means well fitted activation curve with a large enough effect in the signal ratio in the repeat runs, not every such curve was filed as active; inconclusive means weak or mixed curves, or effect the other way; inactive means no such curve, though single readings can be large or run the other way; the % refers to the signal ratio; on activation: on the % scale 0 is the no-effect control and ±100 the full control effect); conditions: HEK293H PPARg-UAS-bla, beta-lactamase FRET ratio, 17 h; activation: at 57 µM (top of the series) unless noted
# Sequence of UniProt P37231 (P37231 whole entry, looked up): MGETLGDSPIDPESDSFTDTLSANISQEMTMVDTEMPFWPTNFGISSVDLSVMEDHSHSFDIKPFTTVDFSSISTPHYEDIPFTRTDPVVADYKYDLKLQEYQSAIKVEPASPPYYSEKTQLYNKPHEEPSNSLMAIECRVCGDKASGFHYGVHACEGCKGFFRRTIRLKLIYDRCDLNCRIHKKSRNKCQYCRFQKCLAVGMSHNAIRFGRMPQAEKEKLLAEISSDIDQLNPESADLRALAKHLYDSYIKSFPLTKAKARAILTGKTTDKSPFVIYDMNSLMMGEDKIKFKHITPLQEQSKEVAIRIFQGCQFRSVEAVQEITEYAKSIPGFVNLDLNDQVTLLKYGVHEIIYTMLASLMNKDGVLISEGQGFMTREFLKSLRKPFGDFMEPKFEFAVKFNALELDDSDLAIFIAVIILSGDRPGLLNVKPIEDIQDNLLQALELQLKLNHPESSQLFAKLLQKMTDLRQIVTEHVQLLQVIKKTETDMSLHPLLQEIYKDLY
# Outline: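 Agonist activity was taken from a beta-lactamase reporter (FRET substrate, 1 h at room temperature) in HEK293H cells carrying a PPARg UAS-bla construct. Compounds in DMSO were incubated 17 h at 37C after a 5 h cell pre-incubation.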
# [3] = biological target: Peroxisome proliferator-activated receptor gamma (Homo sapiens) (UniProt P37231); assay: qHTS assay to identify small molecule antagonists of the peroxisome proliferator-activated receptor gamma (PPARg) signaling pathway (AID 743191; calls by dose curve; further: nearly all actives have a fitted effect of over 30% in size); conditions: HEK293H PPARg-UAS-bla, beta-lactamase ratio, antagonist, 17 h; ratio activity, negative = inhibition: at 62.6 µM (top of the series) unless noted
# Outline: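 GeneBLAzer PPARg UAS-bla HEK293H cells, 5 h post-plating, exposed to compounds 17 h at 37C. LiveBLAzer B/G FRET substrate added for 1 h at room temperature; beta-lactamase reporter read by fluorescence intensity.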
# [4] = qHTS assay to identify small molecule antagonists of the peroxisome proliferator-activated receptor gamma (PPARg) signaling pathway - cell viability counter screen (AID 743194); conditions: PPARg-bla HEK293H viability, CellTiter-Glo luminescence, 17 h, co-treated with 50 nM rosiglitazone; activity change, negative = cytotoxicity: at 62.6 µM (top of the series) unless noted; further: nearly all actives have a fitted effect of over 55% in size
# Outline: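 Cytotoxicity counter screen in PPARg-bla HEK293H cells, same wells as reporter assay. Compounds plus 50 nM rosiglitazone (final) for 17 h at 37 C, then viability read by CellTiter-Glo luminescence.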
# [5] = qHTS assay for small molecule agonists of the antioxidant response element (ARE) signaling pathway (AID 743202; active means well fitted activation curve with a large enough effect in the signal ratio in the repeat runs, not every such curve was filed as active; inconclusive means weak or mixed curves, or effect the other way; inactive means no such curve, though single readings can be large or run the other way; the % refers to the signal ratio; on activation: on the % scale 0 is the no-effect control and ±100 the full control effect); conditions: HepG2 ARE-bla reporter, beta-lactamase FRET, 16 h; activation: at 73.3 µM (top of the series) unless noted
# Outline: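 HepG2 ARE-bla reporter line, 2,000 cells/well; 5 h preincubation 37 C/5% CO2; compound (DMSO) 16 h 37 C; B/G FRET substrate 2 h RT; fluorescence intensity.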
# [6] = biological target: Peroxisome proliferator-activated receptor delta (Homo sapiens) (UniProt Q03181); assay: qHTS assay to identify small molecule agonists of the peroxisome proliferator-activated receptor delta (PPARd) signaling pathway (AID 743212; calls by dose curve); conditions: HEK293H PPARd-UAS-bla, beta-lactamase FRET ratio, 17 h; activation: at 62.6 µM (top of the series) unless noted
# Sequence of UniProt Q03181 (Q03181 whole entry, looked up): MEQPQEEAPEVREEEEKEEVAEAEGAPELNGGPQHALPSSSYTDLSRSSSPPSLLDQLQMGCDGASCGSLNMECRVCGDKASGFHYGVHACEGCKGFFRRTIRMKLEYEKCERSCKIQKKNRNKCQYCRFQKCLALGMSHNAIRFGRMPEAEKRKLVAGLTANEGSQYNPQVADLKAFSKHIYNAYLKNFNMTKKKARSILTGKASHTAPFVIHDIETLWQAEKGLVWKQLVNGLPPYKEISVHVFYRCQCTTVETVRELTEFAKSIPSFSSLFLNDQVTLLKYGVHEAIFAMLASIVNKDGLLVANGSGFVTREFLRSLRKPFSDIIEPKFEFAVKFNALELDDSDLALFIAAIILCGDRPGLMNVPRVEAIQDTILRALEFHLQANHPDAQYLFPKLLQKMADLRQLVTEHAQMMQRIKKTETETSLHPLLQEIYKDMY
# Outline: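 Read-out: beta-lactamase FRET fluorescence after 2 h room-temperature incubation with LiveBLAzer B/G substrate. Cells were HEK293H carrying a UAS-bla reporter for PPARd, treated at 37 C with DMSO-dissolved compounds.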
# [7] = qHTS assay to identify small molecule antagonists of the peroxisome proliferator-activated receptor delta (PPARd) signaling pathway - cell viability counter screen (AID 743213); conditions: PPARd-bla HEK293H viability, CellTiter-Glo luminescence, 17 h; viability change, negative = cytotoxic: at 62 µM (top of the series) unless noted; further: nearly all actives have a fitted effect of over 50% in size
# Outline: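 CellTiter-Glo was added to PPARd-bla HEK293H wells following 17 h compound treatment in the presence of 300 nM L165041. Luminescence was recorded after 30 min at room temperature.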
# [8] = biological target: Peroxisome proliferator-activated receptor delta (Homo sapiens) (UniProt Q03181); assay: qHTS assay to identify small molecule antagonists of the peroxisome proliferator-activated receptor delta (PPARd) signaling pathway (AID 743215; active means well fitted inhibition curve with a large enough effect in the signal ratio in the repeat runs, not every such curve was filed as active; inconclusive means weak or mixed curves, or effect the other way; inactive means no such curve, though single readings can be large or run the other way; the % refers to the signal ratio;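 further: cells stimulated with agonist L165041 at 300 nM final during compound exposure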; on ratio activity, negative = inhibition: on the % scale 0 is the no-effect control and ±100 the full control effect); conditions: HEK293H PPARd-UAS-bla, beta-lactamase FRET ratio, antagonist, 17 h; ratio activity, negative = inhibition: at 62 µM (top of the series) unless noted
# Outline: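 Agonist L165041 (300 nM final) added with compound to PPARd-bla HEK293H UAS-bla reporter cells; 17 h incubation at 37 C. Read-out: LiveBLAzer FRET substrate, 2 h at room temperature, fluorescence intensity.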
# [9] = qHTS assay to identify small molecule agonists of the farnesoid-X-receptor (FXR) signaling pathway - cell viability counter screen (AID 743218); conditions: FXR-bla HEK293T viability, CellTiter-Glo luminescence, 16 h; viability change, negative = cytotoxic: at 62.6 µM (top of the series) unless noted; further: nearly all actives have a fitted effect of over 45% in size
# Outline: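 Viability counter screen in the same wells: CellTiter-Glo luminescence, 30 min room-temperature incubation, measured after the beta-lactamase read. Cells were GeneBLAzer FXR-UAS-bla HEK 293T, compound-treated 16 h at 37C.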
# [10] = qHTS assay to identify small molecule antagonists of the farnesoid-X-receptor (FXR) signaling pathway - cell viability counter screen (AID 743221; active means well fitted cell-killing curve with a large enough effect in the repeat runs, not every such curve was filed as active; inconclusive means weak or mixed curves, or effect the other way; inactive means no such curve, though single readings can be large or run the other way; further: nearly all actives have a fitted effect of over 50% in size); conditions: FXR-bla HEK293T viability, CellTiter-Glo luminescence, 16 h; activity change, negative = cytotoxicity: at 62.6 µM (top of the series)
# Outline: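 Cytotoxicity counter screen run in the FXR-bla reporter wells: HEK 293T cells exposed to compound with 50 uM (final) chenodeoxycholic acid for 16 h, 37 C, then viability measured by CellTiter-Glo luminescence after 30 min, room temperature.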
# [11] = biological target: Vitamin D3 receptor (Homo sapiens) (UniProt P11473); assay: qHTS assay to identify small molecule agonists of the vitamin D receptor (VDR) signaling pathway (AID 743222; calls by dose curve); conditions: HEK293T VDR-UAS-bla, beta-lactamase FRET ratio, 16 h; activation: at 63.5 µM (top of the series) unless noted
# Sequence of UniProt P11473 (P11473 whole entry, looked up): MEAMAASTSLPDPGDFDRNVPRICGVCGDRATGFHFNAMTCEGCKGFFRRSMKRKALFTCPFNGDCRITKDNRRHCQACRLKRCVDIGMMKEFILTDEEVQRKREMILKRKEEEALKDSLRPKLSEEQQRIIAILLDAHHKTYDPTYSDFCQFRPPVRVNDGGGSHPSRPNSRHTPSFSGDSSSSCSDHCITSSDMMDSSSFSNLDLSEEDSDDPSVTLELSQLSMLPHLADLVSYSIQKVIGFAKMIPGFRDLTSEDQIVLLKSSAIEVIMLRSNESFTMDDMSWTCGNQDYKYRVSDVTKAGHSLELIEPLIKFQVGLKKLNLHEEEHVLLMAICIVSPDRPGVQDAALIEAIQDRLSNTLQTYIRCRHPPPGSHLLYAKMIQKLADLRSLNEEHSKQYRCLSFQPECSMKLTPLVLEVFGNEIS
# Outline: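 Agonist mode, beta-lactamase reporter: fluorescence from LiveBLAzer B/G FRET substrate (2 h, room temperature) read after 16 h compound treatment at 37 C of VDR-bla cells, which were pre-incubated 4 h after seeding.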
# [12] = biological target: Vitamin D3 receptor (Homo sapiens) (UniProt P11473); assay: qHTS assay to identify small molecule antagonists of the vitamin D receptor (VDR) signaling pathway (AID 743223; active means well fitted inhibition curve with a large enough effect in the signal ratio in the repeat runs, not every such curve was filed as active; inconclusive means weak or mixed curves, or effect the other way; inactive means no such curve, though single readings can be large or run the other way; the % refers to the signal ratio; on activity change, negative = inhibition: on the % scale 0 is the no-effect control and ±100 the full control effect); conditions: VDR-UAS-bla HEK293T, beta-lactamase FRET ratio, 16 h; activity change, negative = inhibition: at 61 µM (top of the series) unless noted
# Outline: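 Antagonist mode: compound added to VDR-bla cells alongside agonist 1alpha,25-dihydroxyvitamin D3 (3 nM final), incubation 16 h at 37C. Read-out is LiveBLAzer FRET fluorescence, 2 h at room temperature.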
# [13] = qHTS assay to identify small molecule antagonists of the vitamin D receptor (VDR) signaling pathway - cell viability counter screen (AID 743225); conditions: VDR-bla HEK293T viability, CellTiter-Glo luminescence, 16 h; viability change, negative = cytotoxic: at 61 µM (top of the series) unless noted; further: nearly all actives have a fitted effect of over 50% in size
# Outline: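 Cytotoxicity counter screen read by CellTiter-Glo luminescence (30 min, room temperature) in the same wells as the VDR-bla antagonist readout. HEK 293T VDR-UAS-bla cells had 16 h at 37C with compound and 3 nM (final) 1-alpha,25-dihydroxyvitamin D3, then 2 h with FRET substrate.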
# [14] = qHTS assay for small molecule activators of the heat shock response signaling pathway - cell viability counter screen (AID 743209); conditions: HSE-bla HeLa viability, CellTiter-Glo luminescence, 5 h; activity change, negative = cytotoxicity: at 62.6 µM (top of the series) unless noted; further: nearly all actives have a fitted effect of over 50% in size
# Outline: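 Cytotoxicity counter screen run in the same wells as the heat-shock bla reporter assay: HeLa HSE-bla cells, 5 h compound exposure at 37 C, viability read by CellTiter-Glo luminescence.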
# [15] = qHTS assay for small molecule activators of the heat shock response signaling pathway (AID 743210; active means well fitted activation curve with a large enough effect in the signal ratio in the repeat runs, with a control signal flat, not every such curve was filed as active; inconclusive means weak or mixed curves; the % refers to the signal ratio); conditions: HeLa HSE-bla reporter, beta-lactamase ratio, 5 h; activation: at 62.6 µM (top of the series)
# Outline: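 Beta-lactamase reporter read-out: FRET substrate fluorescence after 2.5 h at RT, following 5 h compound treatment at 37 C of HeLa cells carrying HSE-driven bla reporter; quantitative HTS format.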
# [16] = biological target: Bile acid receptor (Homo sapiens) (UniProt Q96RI1); assay: qHTS assay to identify small molecule antagonists of the farnesoid-X-receptor (FXR) signaling pathway (AID 743217; active means well fitted inhibition curve with a large enough effect in the signal ratio in the repeat runs, not every such curve was filed as active; inconclusive means weak or mixed curves, or effect the other way; inactive means no such curve, though single readings can be large or run the other way; the % refers to the signal ratio); conditions: HEK293T FXR-UAS-bla, beta-lactamase ratio, CDCA-stimulated, 16 h; activity change, negative = inhibition: at 62.6 µM (top of the series) unless noted
# Sequence of UniProt Q96RI1 (Q96RI1 whole entry, looked up): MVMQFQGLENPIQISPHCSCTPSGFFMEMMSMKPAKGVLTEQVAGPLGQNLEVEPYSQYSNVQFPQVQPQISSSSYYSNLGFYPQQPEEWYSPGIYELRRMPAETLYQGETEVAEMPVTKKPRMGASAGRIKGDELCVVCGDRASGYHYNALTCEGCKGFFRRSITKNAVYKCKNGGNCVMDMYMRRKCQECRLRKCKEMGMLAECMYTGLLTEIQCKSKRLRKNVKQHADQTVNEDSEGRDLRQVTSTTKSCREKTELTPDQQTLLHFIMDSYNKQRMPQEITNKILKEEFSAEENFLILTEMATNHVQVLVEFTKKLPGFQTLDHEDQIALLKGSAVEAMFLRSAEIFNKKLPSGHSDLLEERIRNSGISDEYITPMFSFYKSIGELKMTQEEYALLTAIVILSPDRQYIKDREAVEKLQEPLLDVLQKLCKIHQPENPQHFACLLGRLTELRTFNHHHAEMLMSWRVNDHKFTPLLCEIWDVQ
# Outline: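 Antagonist mode: chenodeoxycholic acid at 50 uM final stimulates a UAS-driven beta-lactamase reporter in HEK 293T FXR-bla cells during 16 h, 37C compound exposure. Read-out is FRET substrate fluorescence after 2 h at room temperature.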
# [17] = qHTS assay to identify small molecule agonists of the vitamin D receptor (VDR) signaling pathway - cell viability counter screen (AID 743224); conditions: VDR-bla HEK293T viability, CellTiter-Glo luminescence, 16 h; activity change, negative = cytotoxicity: at 62.6 µM (top of the series) unless noted; further: nearly all actives have a fitted effect of over 50% in size
# Outline: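 Counter screen run in the same wells as the VDR-bla reporter assay: CellTiter-Glo luminescence, 30 min at room temperature, after 16 h compound treatment at 37C of cells pre-plated for 4 h.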
# Potency means the concentration at half of the fitted maximal effect; tags describe the fitted curve by direction and shape or compound fluorescence and quenching.
compound,measurement,setting,value
CSc1ccc2c(c1)C(N1CCN(C)CC1)Cc1ccccc1S2 (centres undefined),Potency,[1],active: 29.8 µM
same,activation,[2],inconclusive: -17.4%
same,Potency,[3],"inconclusive: 10.6 µM [inhibitor, full curve]"
same,Potency,[4],active: 18.8 µM
same,activation,[5],inconclusive: 14.3%
same,Potency,[6],"inconclusive: 15 µM [rising, partial curve, poor fit]"
same,Potency,[7],active: 16.8 µM
same,"ratio activity, negative = inhibition",[8],inconclusive: -32%
same,Potency,[9],active: 26.6 µM
same,Potency,[10],"inconclusive: 13.3 µM [falling, partial curve, poor fit]"
same,Potency,[11],"inconclusive: 33.5 µM [rising, single point]"
same,"activity change, negative = inhibition",[12],inconclusive: -22.9%
same,Potency,[13],"inconclusive: 21.3 µM [cytotoxic, partial curve]"
CCOc1nc2cccc(C(=O)OC(C)OC(=O)OC3CCCCC3)c2n1Cc1ccc(-c2ccccc2-c2nn[nH]n2)cc1 (centres undefined),Potency,[1],"inconclusive: 61.1 µM [falling, partial curve, poor fit]"
same,activation,[2],inconclusive: 34.3%
same,Potency,[3],"inconclusive: 3.09 µM [rising, full curve]"
same,Potency,[5],"inconclusive: 43.2 µM [falling, partial curve]"
same,Potency,[14],active: 13.8 µM
same,Potency,[15],inconclusive: 36 µM
same,activation,[6],inconclusive: 13.2%
same,Potency,[7],active: 17.4 µM
same,"ratio activity, negative = inhibition",[8],inconclusive: -41.3%
same,Potency,[16],inconclusive: 43.6 µM [single point]
same,Potency,[9],active: 15.5 µM
same,Potency,[10],"inconclusive: 48.9 µM [falling, single point]"
same,Potency,[12],"inconclusive: 17.4 µM [rising, partial curve]"
same,Potency,[13],active: 19.5 µM
CCCCCCCCCCCCOC(=O)c1cc(O)c(O)c(O)c1,Potency,[1],inactive
same,Potency,[2],inconclusive: 43.5 µM [partial curve] and inconclusive: 61.7 µM [single point]
same,Potency,[4],"inconclusive: 61.4 µM [cytotoxic, partial curve, poor fit] and active: 43.6 µM"
same,Potency,[5],"inconclusive: 76.6 µM [falling, single point] and inconclusive: 68.6 µM [falling, single point]"
same,Potency,[15],inconclusive: 17.3 µM and inconclusive: 49 µM [partial curve]
same,Potency,[7],active: 34.5 µM and active: 54.9 µM
same,Potency,[8],"inconclusive: 68.9 µM [cytotoxic, single point] and inconclusive: 61.7 µM [cytotoxic, single point]"
same,Potency,[16],"inconclusive: 43.5 µM [cytotoxic, partial curve] and active: 54.9 µM"
same,Potency,[9],active: 43.5 µM and inconclusive: 54.9 µM [cytotoxic]
same,Potency,[12],"inconclusive: 54.9 µM [inhibitor, single point]"
same,"activity change, negative = inhibition",[12],inconclusive: -58% [at 78.8 µM]
same,Potency,[17],active: 27.4 µM and active: 21.9 µM
